Reference: PubChem BioAssay (NCATS)
Several values for one entry are separate records, joined by “and”; a condition that tells them apart may be missing. Equal entries are not always repeated. Inconclusive means that the source gave no clear call. Such entries were picked first, then a sample of the others. Potencies of inconclusive entries are doubtful fits and often do not repeat. Activity calls are given as the source filed them. Calls follow the shape of the dose curve; as a rule, active = well fitted inhibition curve with a large enough effect; inconclusive = small, poorly fitted or top-dose-only effect; inactive = flat fitted curve, though single readings scatter.

System: Zika virus NS2B-NS3 protease (linked construct)
Test: Confirmatory screen NINDS AMC qHTS for Zika virus inhibitors (AID 1347152); also: nearly all actives have a fitted effect of over 70% in size
Details: Purified linked NS2B-NS3, AMC substrate fluorescence; series mostly up to 56.6 µM
Method in brief: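 Purified NS2B-NS3 protease with NS2B hydrophilic domain linked to NS3 protease domain by flexible linker, 1 nM final in 10 mM Tris-HCl pH 8.0, 0.01% Tween 20. Compounds preincubated 15 min, room temperature; Bz-Nle-KRR-AMC 10 microM (Km 18.3 µM); 15-min fluorescence change, 4-parameter Hill fit.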
Potency is read from the fitted curve at half-maximal effect; tags tell the direction and shape of the fitted curve.

Structure (SMILES)	Potency
CS(=O)c1ccc(-c2nc(-c3ccc(F)cc3)c(-c3ccncc3)[nH]2)cc1 (stereo unspecified)	active: 24.1 µM
O=C1NC(=O)/C(=C/c2ccc3c(c2)OC(F)(F)O3)S1	inconclusive: 49.4 µM [inhibitor, partial curve]
CNC1CCCN(c2c(F)cc3c(=O)c(C(=O)O)cn(C4CC4)c3c2OC)C1 (stereo unspecified)	inconclusive: 10.8 µM [inhibitor, full curve] and active: 27.1 µM
CN(C)c1cc(NC(=O)CNC(C)(C)C)c(O)c2c1C[C@@H]1C[C@H]3[C@H](N(C)C)C(=O)C(C(N)=O)=C(O)[C@@]3(O)C(=O)C1=C2O	inconclusive: 21.5 µM [inhibitor, partial curve]
CC(C)c1ccc2c(c1)c(SC(C)(C)C)c(CC(C)(C)C(=O)O)n2Cc1ccc(Cl)cc1	inconclusive: 6.07 µM [inhibitor, full curve]
Cc1nc(-c2ccc(OCC(C)C)c(C#N)c2)sc1C(=O)O	inconclusive: 21.5 µM [inhibitor, partial curve]
